{
  "source": "the supplement of paper PMC8728848",
  "binders": {"B1": {"name": "Strep tagII-anxA1 (Homo sapiens), P04083 (protein)", "chain": "MAMVSEFLKQAWFIENEEQEYVQTVKSSKGGPGSAVSPYPTFNPSSDVAALHKAIMVKGVDEATIIDILTKRNNAQRQQIKAAYLQETGKPLDETLKKALTGHLEEVVLALLKTPAQFDADELRAAMKGLGTDEDTLIEILASRTNKEIRDINRVYREELKRDLAKDITSDTSGDFRNALLSLAKGDRSEDFGVNEDLADSDARALYEAGERRKGTDVNVFNTILTTRSYPQLRRVFQKYTKYSKHDMNKVLDLELKGDIEKCLTAIVKCATSKPAFFAEKLHQAMKGVGTRHKALIRIMVSRSEIDMNDIKAFYQKMYGISLCQAILDETKGDYEKILVALCGGN"}},
  "experiment_in_all_cases": "glycan array binding signal (z-score within array); higher = stronger binding",
  "conditions_in_all_cases": "glycan notation: IUPAC condensed, linker removed",
  "key": {"[1]": {"biological_target": "Kdn(a2-3)Gal(b1-4)GlcNAc", "in_short": "(§1)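 From the Consortium for Functional Glycomics database, 3228 arrays were curated, keeping only those whose protein sequence was available. Binding is given as a within-array Z-score averaged across arrays sharing a protein sequence and across linkers. Negative Z-scores can be read as non-binding.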"}, "[2]": {"biological_target": "Kdn(a2-3)Gal(b1-4)[Fuc(a1-3)]GlcNAc", "in_short": "as §1"}, "[3]": {"biological_target": "Kdn(a2-6)Gal(b1-4)GlcNAc", "in_short": "as §1"}, "[4]": {"biological_target": "Man(a1-2)Man(a1-2)Man(a1-3)Man", "in_short": "as §1"}, "[5]": {"biological_target": "Man(a1-2)Man(a1-2)Man(a1-6)[Man(a1-3)]Man", "in_short": "as §1"}, "[6]": {"biological_target": "Man(a1-2)Man(a1-3)Man", "in_short": "as §1"}, "[7]": {"biological_target": "Man(a1-2)Man(a1-3)[Man(a1-2)Man(a1-6)]Man", "in_short": "as §1"}, "[8]": {"biological_target": "Man(a1-2)Man(a1-3)[Man(a1-2)Man(a1-6)]Man(a1-6)[Man(a1-2)Man(a1-2)Man(a1-3)]Man", "in_short": "as §1"}, "[9]": {"biological_target": "Man(a1-2)Man(a1-3)[Man(a1-2)Man(a1-6)]Man(a1-6)[Man(a1-2)Man(a1-2)Man(a1-3)]Man(b1-4)GlcNAc(b1-4)GlcNAc", "in_short": "as §1"}, "[10]": {"biological_target": "Man(a1-2)Man(a1-3)[Man(a1-6)]Man(a1-6)[Man(a1-2)Man(a1-3)]Man(b1-4)GlcNAc(b1-4)GlcNAc", "in_short": "as §1"}, "[11]": {"biological_target": "Man(a1-2)Man(a1-6)[Man(a1-3)]Man(a1-6)[Man(a1-2)Man(a1-2)Man(a1-3)]Man", "in_short": "as §1"}, "[12]": {"biological_target": "Man(a1-2)Man(a1-6)[Man(a1-3)]Man(a1-6)[Man(a1-2)Man(a1-2)Man(a1-3)]Man(b1-4)GlcNAc(b1-4)GlcNAc", "in_short": "as §1"}, "[13]": {"biological_target": "Man(a1-3)[Man(a1-6)]Man", "in_short": "as §1"}, "[14]": {"biological_target": "Man(a1-3)[Man(a1-6)]Man(a1-6)[Man(a1-2)Man(a1-3)]Man(b1-4)GlcNAc(b1-4)GlcNAc", "in_short": "as §1"}, "[15]": {"biological_target": "Man(a1-3)[Man(a1-6)]Man(a1-6)[Man(a1-3)]Man", "in_short": "as §1"}, "[16]": {"biological_target": "Man(a1-3)[Man(a1-6)]Man(a1-6)[Man(a1-3)]Man(b1-4)GlcNAc(b1-4)GlcNAc", "in_short": "as §1"}, "[17]": {"biological_target": "Man(a1-3)[Man(a1-6)]Man(b1-4)GlcNAc(b1-4)GlcNAc", "in_short": "as §1"}, "[18]": {"biological_target": "Man(a1-3)[Man(a1-6)]Man(b1-4)GlcNAc(b1-4)[Fuc(a1-6)]GlcNAc", "in_short": "as §1"}, "[19]": {"biological_target": "Man(a1-6)Man", "in_short": "as §1"}, "[20]": {"biological_target": "Man(b1-4)GlcNAc", "in_short": "as §1"}, "[21]": {"biological_target": "Neu5Ac(a2-3)Gal", "in_short": "as §1"}, "[22]": {"biological_target": "Neu5Ac(a2-3)Gal(b1-3)GalNAc", "in_short": "as §1"}, "[23]": {"biological_target": "Neu5Ac(a2-3)Gal(b1-3)GalNAc(b1-3)Gal(a1-4)Gal(b1-4)Glc", "in_short": "as §1"}, "[24]": {"biological_target": "Neu5Ac(a2-3)Gal(b1-3)GalNAc(b1-4)[Neu5Ac(a2-3)]Gal(b1-4)Glc", "in_short": "as §1"}, "[25]": {"biological_target": "Neu5Ac(a2-3)Gal(b1-3)GalNAc(b1-4)[Neu5Ac(a2-8)Neu5Ac(a2-3)]Gal(b1-4)Glc", "in_short": "as §1"}, "[26]": {"biological_target": "Neu5Ac(a2-3)Gal(b1-3)GalNAc6S", "in_short": "as §1"}, "[27]": {"biological_target": "Neu5Ac(a2-3)Gal(b1-3)GlcNAc", "in_short": "as §1"}, "[28]": {"biological_target": "Neu5Ac(a2-3)Gal(b1-3)GlcNAc(b1-2)Man(a1-3)[GlcNAc(b1-4)][Neu5Ac(a2-3)Gal(b1-3)GlcNAc(b1-2)Man(a1-6)]Man(b1-4)GlcNAc(b1-4)GlcNAc", "in_short": "as §1"}, "[29]": {"biological_target": "Neu5Ac(a2-3)Gal(b1-3)GlcNAc(b1-3)Gal(b1-3)GlcNAc", "in_short": "as §1"}, "[30]": {"biological_target": "Neu5Ac(a2-3)Gal(b1-3)GlcNAc(b1-3)Gal(b1-4)GlcNAc", "in_short": "as §1"}, "[31]": {"biological_target": "Neu5Ac(a2-3)Gal(b1-3)GlcNAc(b1-3)GalNAc", "in_short": "as §1"}, "[32]": {"biological_target": "Neu5Ac(a2-3)Gal(b1-3)GlcNAc(b1-6)GalNAc", "in_short": "as §1"}, "[33]": {"biological_target": "Neu5Ac(a2-3)Gal(b1-3)GlcNAc6S", "in_short": "as §1"}, "[34]": {"biological_target": "Neu5Ac(a2-3)Gal(b1-3)[Fuc(a1-4)]GlcNAc", "in_short": "as §1"}, "[35]": {"biological_target": "Neu5Ac(a2-3)Gal(b1-3)[Fuc(a1-4)]GlcNAc(b1-3)Gal(b1-3)[Fuc(a1-4)]GlcNAc", "in_short": "as §1"}, "[36]": {"biological_target": "Neu5Ac(a2-3)Gal(b1-3)[Fuc(a1-4)]GlcNAc(b1-3)Gal(b1-4)[Fuc(a1-3)]GlcNAc", "in_short": "as §1"}, "[37]": {"biological_target": "Neu5Ac(a2-3)Gal(b1-3)[Neu5Ac(a2-3)Gal(b1-4)]GlcNAc", "in_short": "as §1"}, "[38]": {"biological_target": "Neu5Ac(a2-3)Gal(b1-3)[Neu5Ac(a2-6)]GalNAc", "in_short": "as §1"}},
  "note": "The other results are listed elsewhere or left out.",
  "data": [
    {"binder": "B1", "values": [
      {"measurement": "glycan array binding signal (z-score)", "setting": "[1]", "result": -0.41},
      {"measurement": "glycan array binding signal (z-score)", "setting": "[2]", "result": -0.093},
      {"measurement": "glycan array binding signal (z-score)", "setting": "[3]", "result": -0.606},
      {"measurement": "glycan array binding signal (z-score)", "setting": "[4]", "result": -0.615},
      {"measurement": "glycan array binding signal (z-score)", "setting": "[5]", "result": -0.215},
      {"measurement": "glycan array binding signal (z-score)", "setting": "[6]", "result": -0.123},
      {"measurement": "glycan array binding signal (z-score)", "setting": "[7]", "result": -0.308},
      {"measurement": "glycan array binding signal (z-score)", "setting": "[8]", "result": 0.503},
      {"measurement": "glycan array binding signal (z-score)", "setting": "[9]", "result": 0.464},
      {"measurement": "glycan array binding signal (z-score)", "setting": "[10]", "result": 2.1},
      {"measurement": "glycan array binding signal (z-score)", "setting": "[11]", "result": -0.63},
      {"measurement": "glycan array binding signal (z-score)", "setting": "[12]", "result": -0.171},
      {"measurement": "glycan array binding signal (z-score)", "setting": "[13]", "result": -0.433},
      {"measurement": "glycan array binding signal (z-score)", "setting": "[14]", "result": -0.255},
      {"measurement": "glycan array binding signal (z-score)", "setting": "[15]", "result": 0.012},
      {"measurement": "glycan array binding signal (z-score)", "setting": "[16]", "result": -0.658},
      {"measurement": "glycan array binding signal (z-score)", "setting": "[17]", "result": 0.397},
      {"measurement": "glycan array binding signal (z-score)", "setting": "[18]", "result": 2.06},
      {"measurement": "glycan array binding signal (z-score)", "setting": "[19]", "result": -0.526},
      {"measurement": "glycan array binding signal (z-score)", "setting": "[20]", "result": -0.718},
      {"measurement": "glycan array binding signal (z-score)", "setting": "[21]", "result": -0.238},
      {"measurement": "glycan array binding signal (z-score)", "setting": "[22]", "result": -0.389},
      {"measurement": "glycan array binding signal (z-score)", "setting": "[23]", "result": 0.255},
      {"measurement": "glycan array binding signal (z-score)", "setting": "[24]", "result": -0.502},
      {"measurement": "glycan array binding signal (z-score)", "setting": "[25]", "result": -0.624},
      {"measurement": "glycan array binding signal (z-score)", "setting": "[26]", "result": -0.417},
      {"measurement": "glycan array binding signal (z-score)", "setting": "[27]", "result": -0.596},
      {"measurement": "glycan array binding signal (z-score)", "setting": "[28]", "result": 2.14},
      {"measurement": "glycan array binding signal (z-score)", "setting": "[29]", "result": -0.701},
      {"measurement": "glycan array binding signal (z-score)", "setting": "[30]", "result": -0.67},
      {"measurement": "glycan array binding signal (z-score)", "setting": "[31]", "result": 0.092},
      {"measurement": "glycan array binding signal (z-score)", "setting": "[32]", "result": 1.8},
      {"measurement": "glycan array binding signal (z-score)", "setting": "[33]", "result": -0.563},
      {"measurement": "glycan array binding signal (z-score)", "setting": "[34]", "result": -0.529},
      {"measurement": "glycan array binding signal (z-score)", "setting": "[35]", "result": -0.656},
      {"measurement": "glycan array binding signal (z-score)", "setting": "[36]", "result": -0.74},
      {"measurement": "glycan array binding signal (z-score)", "setting": "[37]", "result": -0.763},
      {"measurement": "glycan array binding signal (z-score)", "setting": "[38]", "result": 0.669}
    ]}
  ]
}
